# Results taken from the supplement of paper PMC8728848.
# The other results are listed elsewhere or left out.
# B1: Flo11 (Saccharomyces cerevisiae), Q1H8S8 (protein)
# chain: MGSSHHHHHHSSGLVPRGSHMFPTALVPRGSSEGTSCNSIVNGCPNLDFNWHMDQQNIMQYTLDVTSVSWVQDNTYQITIHVKGKENIDLKYLWSLKIIGVTGPKGTVQLYGYNENTYLIDNPTDFTATFEVYATQDVNSCQVWMPNFQIQFEYLQGSAAQYASSWQWGTTSFDLSTGCNNYDNQGHSQTDFPGFYWNIDCDNNCGGTKSS
# Experiments:
# Assay in all cases: glycan array binding signal (z-score within array); higher = stronger binding
# Settings in all cases: glycan notation: IUPAC condensed, linker removed
# Fuc(a1-2)Gal = target: Fuc(a1-2)Gal
# In short: (§1)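 Glycan array binding is given as a within-array Z-score, which can be read as non-binding when negative. The arrays, 3228 of them, came from the Consortium for Functional Glycomics database and were retained only where the protein sequence was available. Z-scores were averaged across arrays of the same protein sequence at different concentrations or buffers and across linkers.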
# Fuc(a1-2)Gal(b1-3)GalNAc = target: Fuc(a1-2)Gal(b1-3)GalNAc
# In short: as §1
# [1] = target: Fuc(a1-2)Gal(b1-3)GalNAc(b1-3)Gal
# In short: as §1
# [2] = target: Fuc(a1-2)Gal(b1-3)GalNAc(b1-3)Gal(a1-4)Gal(b1-4)Glc
# In short: as §1
# [3] = target: Fuc(a1-2)Gal(b1-3)GalNAc(b1-4)[Neu5Ac(a2-3)]Gal(b1-4)Glc
# In short: as §1
# Fuc(a1-2)Gal(b1-3)GlcNAc = target: Fuc(a1-2)Gal(b1-3)GlcNAc
# In short: as §1
# [4] = target: Fuc(a1-2)Gal(b1-3)GlcNAc(b1-2)Man(a1-3)[Fuc(a1-2)Gal(b1-3)GlcNAc(b1-2)Man(a1-6)]Man(b1-4)GlcNAc(b1-4)GlcNAc
# In short: as §1
# [5] = target: Fuc(a1-2)Gal(b1-3)GlcNAc(b1-3)Gal(b1-4)Glc
# In short: as §1
# [6] = target: Fuc(a1-2)Gal(b1-3)GlcNAc(b1-3)[Gal(b1-4)[Fuc(a1-3)]GlcNAc(b1-6)]Gal(b1-4)Glc
# In short: as §1
# [7] = target: Fuc(a1-2)Gal(b1-3)[Fuc(a1-4)]GlcNAc
# In short: as §1
# [8] = target: Fuc(a1-2)Gal(b1-3)[Fuc(a1-4)]GlcNAc(b1-2)Man(a1-3)[Fuc(a1-2)Gal(b1-3)[Fuc(a1-4)]GlcNAc(b1-2)Man(a1-6)]Man(b1-4)GlcNAc(b1-4)GlcNAc
# In short: as §1
# Fuc(a1-2)Gal(b1-4)Glc = target: Fuc(a1-2)Gal(b1-4)Glc
# In short: as §1
# Fuc(a1-2)Gal(b1-4)Glc6S = target: Fuc(a1-2)Gal(b1-4)Glc6S
# In short: as §1
# Fuc(a1-2)Gal(b1-4)GlcNAc = target: Fuc(a1-2)Gal(b1-4)GlcNAc
# In short: as §1
# [9] = target: Fuc(a1-2)Gal(b1-4)GlcNAc(b1-2)Man(a1-3)[Fuc(a1-2)Gal(b1-4)GlcNAc(b1-2)Man(a1-6)]Man(b1-4)GlcNAc(b1-4)GlcNAc
# In short: as §1
# [10] = target: Fuc(a1-2)Gal(b1-4)GlcNAc(b1-3)Gal(b1-4)GlcNAc
# In short: as §1
# [11] = target: Fuc(a1-2)Gal(b1-4)GlcNAc(b1-3)Gal(b1-4)GlcNAc(b1-3)Gal(b1-4)GlcNAc
# In short: as §1
# [12] = target: Fuc(a1-2)Gal(b1-4)GlcNAc6S
# In short: as §1
# [13] = target: Fuc(a1-2)Gal(b1-4)[Fuc(a1-3)]GlcNAc
# In short: as §1
# [14] = target: Fuc(a1-2)Gal(b1-4)[Fuc(a1-3)]GlcNAc(b1-2)Man(a1-3)[Fuc(a1-2)Gal(b1-4)[Fuc(a1-3)]GlcNAc(b1-2)Man(a1-6)]Man(b1-4)GlcNAc(b1-4)GlcNAc
# In short: as §1
# [15] = target: Fuc(a1-2)Gal(b1-4)[Fuc(a1-3)]GlcNAc(b1-3)Gal(b1-4)[Fuc(a1-3)]GlcNAc
# In short: as §1
# [16] = target: Fuc(a1-2)Gal(b1-4)[Fuc(a1-3)]GlcNAc(b1-3)Gal(b1-4)[Fuc(a1-3)]GlcNAc(b1-3)Gal(b1-4)[Fuc(a1-3)]GlcNAc
# In short: as §1
# Fuc(a1-2)Gal6S(b1-4)Glc = target: Fuc(a1-2)Gal6S(b1-4)Glc
# In short: as §1
# [17] = target: Fuc(a1-2)Gal6S(b1-4)Glc6S
# In short: as §1
# [18] = target: Fuc(a1-2)Gal6S(b1-4)GlcNAc
# In short: as §1
# Fuc(a1-2)[Gal(a1-3)]Gal = target: Fuc(a1-2)[Gal(a1-3)]Gal
# In short: as §1
# [19] = target: Fuc(a1-2)[Gal(a1-3)]Gal(b1-3)GlcNAc
# In short: as §1
# [20] = target: Fuc(a1-2)[Gal(a1-3)]Gal(b1-3)GlcNAc(b1-2)Man(a1-3)[Fuc(a1-2)[Gal(a1-3)]Gal(b1-3)GlcNAc(b1-2)Man(a1-6)]Man(b1-4)GlcNAc(b1-4)GlcNAc
# In short: as §1
# [21] = target: Fuc(a1-2)[Gal(a1-3)]Gal(b1-4)Glc
# In short: as §1
# [22] = target: Fuc(a1-2)[Gal(a1-3)]Gal(b1-4)GlcNAc
# In short: as §1
# [23] = target: Fuc(a1-2)[Gal(a1-3)]Gal(b1-4)GlcNAc(b1-2)Man(a1-3)[Fuc(a1-2)[Gal(a1-3)]Gal(b1-4)GlcNAc(b1-2)Man(a1-6)]Man(b1-4)GlcNAc(b1-4)GlcNAc
# In short: as §1
# [24] = target: Fuc(a1-2)[Gal(a1-3)]Gal(b1-4)[Fuc(a1-3)]GlcNAc
# In short: as §1
# [25] = target: Fuc(a1-2)[Gal(a1-4)]Gal(b1-4)GlcNAc
# In short: as §1
# [26] = target: Fuc(a1-2)[GalNAc(a1-3)]Gal
# In short: as §1
# [27] = target: Fuc(a1-2)[GalNAc(a1-3)]Gal(b1-3)GlcNAc
# In short: as §1
# [28] = target: Fuc(a1-2)[GalNAc(a1-3)]Gal(b1-3)GlcNAc(b1-2)Man(a1-3)[Fuc(a1-2)[GalNAc(a1-3)]Gal(b1-3)GlcNAc(b1-2)Man(a1-6)]Man(b1-4)GlcNAc(b1-4)GlcNAc
# In short: as §1
# [29] = target: Fuc(a1-2)[GalNAc(a1-3)]Gal(b1-4)Glc
# In short: as §1
# [30] = target: Fuc(a1-2)[GalNAc(a1-3)]Gal(b1-4)GlcNAc
# In short: as §1
# [31] = target: Fuc(a1-2)[GalNAc(a1-3)]Gal(b1-4)GlcNAc(b1-2)Man(a1-3)[GalNAc(a1-3)[Fuc(a1-2)]Gal(b1-4)GlcNAc(b1-2)Man(a1-6)]Man(b1-4)GlcNAc(b1-4)GlcNAc
# In short: as §1
# [32] = target: Fuc(a1-2)[GalNAc(a1-3)]Gal(b1-4)GlcNAc(b1-3)Gal(b1-4)GlcNAc
# In short: as §1
# [33] = target: Fuc(a1-2)[GalNAc(a1-3)]Gal(b1-4)GlcNAc(b1-3)Gal(b1-4)GlcNAc(b1-3)Gal(b1-4)GlcNAc
# In short: as §1
# [34] = target: Fuc(a1-2)[GalNAc(a1-3)]Gal(b1-4)[Fuc(a1-3)]GlcNAc
# In short: as §1
# [35] = target: Fuc(a1-2)[GalNAc(a1-4)]Gal(b1-4)GlcNAc
# In short: as §1
# [36] = target: Fuc(a1-2)[GalNAc(b1-3)]Gal
# In short: as §1
# Fuc(a1-3)GlcNAc = target: Fuc(a1-3)GlcNAc
# In short: as §1
# [37] = target: Fuc(a1-3)[Gal(b1-4)]Glc6S
# In short: as §1
# [38] = target: Fuc(a1-3)[Gal(b1-4)]GlcNAc
# In short: as §1
# [39] = target: Fuc(a1-3)[Gal(b1-4)]GlcNAc(b1-2)Man(a1-3)[Fuc(a1-3)[Gal(b1-4)]GlcNAc(b1-2)Man(a1-6)]Man(b1-4)GlcNAc(b1-4)GlcNAc
# In short: as §1
# [40] = target: Fuc(a1-3)[Gal(b1-4)]GlcNAc(b1-2)Man(a1-6)[Gal(b1-4)GlcNAc(b1-2)Man(a1-3)]Man(b1-4)GlcNAc(b1-4)GlcNAc
# In short: as §1
# [41] = target: Fuc(a1-3)[Gal(b1-4)]GlcNAc(b1-3)Gal(b1-3)[Fuc(a1-4)]GlcNAc
# In short: as §1
# [42] = target: Fuc(a1-3)[Gal(b1-4)]GlcNAc(b1-4)Gal(b1-4)[Fuc(a1-3)]GlcNAc
# In short: as §1
# [43] = target: Fuc(a1-3)[Gal(b1-4)]GlcNAc(b1-4)Gal(b1-4)[Fuc(a1-3)]GlcNAc(b1-4)Gal(b1-4)[Fuc(a1-3)]GlcNAc
# In short: as §1
# [44] = target: Fuc(a1-3)[Gal(b1-4)]GlcNAc6S
# In short: as §1
# [45] = target: Fuc(a1-3)[Gal3S(b1-4)]Glc6S
# In short: as §1
# [46] = target: Fuc(a1-3)[Gal3S(b1-4)]GlcNAc
# In short: as §1
# [47] = target: Fuc(a1-3)[Gal3S(b1-4)]GlcNAc6S
# In short: as §1
# [48] = target: Fuc(a1-3)[GalNAc(b1-4)]GlcNAc
# In short: as §1
# [49] = target: Fuc(a1-3)[Neu5Ac(a2-3)]Gal(b1-4)GlcNAc(b1-3)GalNAc
# In short: as §1
# Fuc(a1-4)GlcNAc = target: Fuc(a1-4)GlcNAc
# In short: as §1
# Fuc(b1-3)GlcNAc = target: Fuc(b1-3)GlcNAc
# In short: as §1
binder,measurement,setting,value
B1,glycan array binding signal (z-score),Fuc(a1-2)Gal,-0.507
same,glycan array binding signal (z-score),Fuc(a1-2)Gal(b1-3)GalNAc,0.413
same,glycan array binding signal (z-score),[1],-0.416
same,glycan array binding signal (z-score),[2],0.73
same,glycan array binding signal (z-score),[3],0.673
same,glycan array binding signal (z-score),Fuc(a1-2)Gal(b1-3)GlcNAc,-0.501
same,glycan array binding signal (z-score),[4],-0.499
same,glycan array binding signal (z-score),[5],-0.358
same,glycan array binding signal (z-score),[6],-0.319
same,glycan array binding signal (z-score),[7],-0.496
same,glycan array binding signal (z-score),[8],1.83
same,glycan array binding signal (z-score),Fuc(a1-2)Gal(b1-4)Glc,-0.504
same,glycan array binding signal (z-score),Fuc(a1-2)Gal(b1-4)Glc6S,-0.497
same,glycan array binding signal (z-score),Fuc(a1-2)Gal(b1-4)GlcNAc,-0.508
same,glycan array binding signal (z-score),[9],-0.486
same,glycan array binding signal (z-score),[10],-0.01
same,glycan array binding signal (z-score),[11],0.047
same,glycan array binding signal (z-score),[12],-0.486
same,glycan array binding signal (z-score),[13],-0.445
same,glycan array binding signal (z-score),[14],1.84
same,glycan array binding signal (z-score),[15],-0.498
same,glycan array binding signal (z-score),[16],-0.499
same,glycan array binding signal (z-score),Fuc(a1-2)Gal6S(b1-4)Glc,-0.497
same,glycan array binding signal (z-score),[17],-0.098
same,glycan array binding signal (z-score),[18],-0.501
same,glycan array binding signal (z-score),Fuc(a1-2)[Gal(a1-3)]Gal,-0.504
same,glycan array binding signal (z-score),[19],-0.506
same,glycan array binding signal (z-score),[20],-0.49
same,glycan array binding signal (z-score),[21],-0.505
same,glycan array binding signal (z-score),[22],-0.507
same,glycan array binding signal (z-score),[23],-0.504
same,glycan array binding signal (z-score),[24],0.644
same,glycan array binding signal (z-score),[25],-0.508
same,glycan array binding signal (z-score),[26],-0.49
same,glycan array binding signal (z-score),[27],-0.49
same,glycan array binding signal (z-score),[28],-0.389
same,glycan array binding signal (z-score),[29],-0.505
same,glycan array binding signal (z-score),[30],-0.498
same,glycan array binding signal (z-score),[31],-0.503
same,glycan array binding signal (z-score),[32],-0.487
same,glycan array binding signal (z-score),[33],1.76
same,glycan array binding signal (z-score),[34],0.366
same,glycan array binding signal (z-score),[35],0.905
same,glycan array binding signal (z-score),[36],1.45
same,glycan array binding signal (z-score),Fuc(a1-3)GlcNAc,-0.5
same,glycan array binding signal (z-score),[37],1.08
same,glycan array binding signal (z-score),[38],-0.478
same,glycan array binding signal (z-score),[39],-0.351
same,glycan array binding signal (z-score),[40],0.357
same,glycan array binding signal (z-score),[41],-0.491
same,glycan array binding signal (z-score),[42],-0.495
same,glycan array binding signal (z-score),[43],-0.388
same,glycan array binding signal (z-score),[44],0.889
same,glycan array binding signal (z-score),[45],1.6
same,glycan array binding signal (z-score),[46],-0.463
same,glycan array binding signal (z-score),[47],1.26
same,glycan array binding signal (z-score),[48],-0.505
same,glycan array binding signal (z-score),[49],3.1
same,glycan array binding signal (z-score),Fuc(a1-4)GlcNAc,-0.502
same,glycan array binding signal (z-score),Fuc(b1-3)GlcNAc,-0.5
